Assay results from the RNAGym collection of RNA variant scans (doi:10.1073/pnas.2313332121).
Variants at the background level are over-represented here.

B1: TPR 5TU (parent)
chain: GGAUCUUCUCGAUCUAACAAAAAAGACAAAUCUGCCACAAAGCUUGAGAGCAUCUUCGGAUGCAGAGGCGGCAGCCUUCGGUGGCGCGAUAGCGCCAACGUUCUCAACUAUGACACGCAAAACGCGUGCUCCGUUGAAUGGAGUUUAUCAUG

Variants of: B1
Assay: polymerase ribozyme fitness, log enrichment relative to wild type (log ratio); higher = more active; in vitro selection for triplet polymerase activity
Method in brief: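 Genotype fitness is the logarithm of its enrichment divided by wild-type enrichment, using inverse-variance-weighted averages of replicates. That logarithm is base 2. Enrichment was measured by Illumina sequencing of input and output libraries from one triplicate in vitro selection round, with frozen incubation at −7 °C, on PCR-built, transcribed mutant libraries of each subunit of a heterodimeric triplet polymerase ribozyme, retaining genotypes with ≥10 input reads and ≥1 read per output.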

Variant | polymerase ribozyme fitness (log ratio)
GGAUCUUCUCGAUCUAACAAAAAAGACAAAUCUGCCACAAAGCUUAAGAGCAUAUUCGGAUGCAGAGGGGGCAGCCUUCGGUGGCGCGAUAGCCCCAACGUUCUCAACUAUGACACGCAAAACGCGUGCUCCGUUGAAUGGAGUUUAUCAUG [G46A C54A C69G G94C] | ≤ -4.2
GGAUCUUCUCGAUCUAACAAAAAAGACAAAUCUGCCACAAAGCUUAAGAGCAACAACGGAAGCAGAGGCGGCAGCCUUCGGUGGCGCUAUAGCGCCAACGUUCUCAACUAUGACACGCAAAACGCGUGCUCCGUUGAAUGGAGUUUAUCAUG [G46A U53A U55A U56A U61A G88U] | ≤ -4.2
GGAUCUUCUCGAUCUAACAAAAAAGACAAAUCUGCCACAAAGCUUAAGAGCAUCUUCGGAUGCAGAGGCGGCAGCCUUCGGUGGCGCGAUAGCGCUAACGUUCUCAACUAUGACACGCAAAACGCGUGCUCCGGUGAGUGGAGUUUAUCAUG [G46A C96U U134G A138G] | ≤ -4.2
GGAUCUUCUCGAUCUAACAAAAAAGACAAAUCUGCCACAAAGCUUAAGAGCAUCUUCGGAUGCAGAGGCGGCAGCCUUCGGUGGCGCGAUAGCGCUAACGUUCUCAACUAUGACACGCAAAACGCGUGCUCCGUUGAAUGGAGUUUAUCAUG [G46A C96U] | 0.0159
GGAUCUUCUCGAUCUAACAAAAAAGACAAAUCUGCCACAAAGCUUAAGAGCAUCUUCGGAUGCAGAGGCGGCAGCCUUCGGUGGAGUGAUAGCGCCAAAGUUCUCAACUAUGACACGCAAAACGCGUGCUCCGUUGAAUGGAGUUUAUCAUG [G46A C85A C87U C99A] | ≤ -4.2
GGAUCUUCUCGAUCUAACAAAAAAGACAAAUCUGCCACAAAGCUUAAGAGCAUCUUCGGAUGCAGAGGCGGCAGCCUUCGGUGGCGCUAUAGCGCCUACGUUCCCGACUAUGACACGCAAAACGCGUGCUCCGUUGAAUGAAGUUUAUCAUG [G46A G88U A97U U104C A106G G141A] | ≤ -4.2
GGAUCUUCUCGAUCUAACAAAAAAGACAAAUCUGCCACAAAGCUUAAGAGCAUCUUAGUAUGUAGCGGCGGCAGCCUUCGGUGGCGCGAUAGCGCCAACGUUCUCAACUAUGACACGCAAAACGCGUGCUCCGUUGAAUGGAGUUUAUCAUG [G46A C57A G59U C63U A66C] | ≤ -4.2
GGAUCUUCUCGAUCUAACAAAAAAGACAAAUCUGCCACAAAGCUUAAGAGCAUCAUCGGAUGCAGAGGCGGCAGCCUUCGGUGGCGCGAUAGCGCCAACGUUCUCAACUAUGACACGCAAAACGCGUGAUCCGUUGAAGGGAGUUCAUCAUG [G46A U55A C129A U139G U146C] | ≤ -4.2
GGAUCUUCUCGAUCUAACAAAAAAGACAAAUCUGCCACAAAGCUUAAGAGCAUCAUCGGAUGCAGAGGCGGCAGCCUACGGUGGCGCGAUUGCGCCAACGUUCUCAACUAUGACACGCAAAACGCGUGCUCCUUUGAAUGGAGUUUAUCAUG [G46A U55A U78A A91U G133U] | ≤ -4.2
GGAUCUUCUCGAUCUAACAAAAAAGACAAAUCUGCCACAAAGCUUAAGAGCAUCUUCGGAUGCAGAGGCGGCAGCCUUCGGUUGCGCGUUAGCGCCAACGUGCUCAACUAUGACACGCAAAACGCGUGCUCCGUUGAAUGGAGUUUAUCAUG [G46A G83U A89U U102G] | ≤ -4.2
GGAUCUUCUCGAUCUAACAAAAAAGACAAAUCUGCCACAAAGCUUAAGAGCAUCUUCGGAUGCAGAGGCGGCAGCCUACGGUGGCGCCAUAGCGCUAACGUUCUCAAAUAUGACAGGCAAAACGCGUGCUCCUUUGAAUGGAGAUUAUCAUG [G46A U78A G88C C96U C108A C116G G133U U144A] | ≤ -4.2
GGAUCUUCUCGAUCUAACAAAAAAGACAAAUCUGCCACAAAGCUUAAGAGCAACUUCGGAUGCAGAGGCGGCAGGCUUCGGUGGCGCGAUAGCGCCAACGUUCUCAACUAUGACACGCAAAACGCGUGCUCCUUUGAAUGGAGUUUAUCAUG [G46A U53A C75G G133U] | ≤ -4.2
GGAUCUUCUCGAUCUAACAAAAAAGACAAAUCUGCCACAAAGCUUAAGACCCUCUUCGGAUGCAGAGGAGGCAGCCUUCGGUGGCGCGAUAGCGCCAACGUUCUCAACUAUGACACGCAAAACGCGUGCUCCGUUGAAUGGAGUUUAUCAUG [G46A G50C A52C C69A] | ≤ -4.2
GGAUCUUCUCGAUCUAACAAAAAAGACAAAUCUGCCACAAAGCUUAAGAGCAUCUUCGGAUGCAGAGCCGGCAGCCUUCGGUGACGCGAUAGCGCCAACGUUCUCAACUAUGACACGCAAAACGCGUGCUCCCUUGAAUGGAGUUUAUCAUG [G46A G68C G84A G133C] | ≤ -4.2
GGAUCUUCUCGAUCUAACAAAAAAGACAAAUCUGCCACAAAGCUUAAGAGCAUCUUCGGAUGCAGAGGCGGCAGCCUUCGGUGGCGCGAUAGCGCAAACGUUCUCAGCUAUGACACGCAAAACGCGUGCUCCGUUGAAUGGAGUUUAUCAUG [G46A C96A A107G] | ≤ -4.2
GGAUCUUCUCGAUCUAACAAAAAAGACAAAUCUGCCACAAAGCUUAAGAGCAUCAUCGGAUGUAGAGGCGGCAGCCUUCGGUGGCGCGAUAGCGCCAACGUUCUCAACUACGACACGCAAAACGAGUGCUCCGUUGAAUGGAGUUUAUCAUG [G46A U55A C63U U111C C125A] | ≤ -4.2
GGAUCUUCUCGAUCUAACAAAAAAGACAAAUCUGCCACAAAGCUUAAGAGCAUCUUCGGAUGCAGAGGCGGCAGCCAUCGGCGGCGCGAUUGCGCCAACGUUCUCUACUAUGACACGCAAAACGCGUGCUCCGUUGAAUGGAGUUUAUCAUG [G46A U77A U82C A91U A106U] | ≤ -4.2
GGAUCUUCUCGAUCUAACAAAAAAGACAAAUCUGCCACAAAGCUUAAGAGCAUCUUCGGAUGCAGAGGCGGCAGCCAUCGGUGGGGCGAUAGCGCCAACGUUCUCAACUAUGACACGCAAAACGCGUGCUCCGUUUAAUGGAGUUUAUCAUG [G46A U77A C85G G136U] | ≤ -4.2
GGAUCUUCUCGAUCUAACAAAAAAGACAAAUCUGCCACAAAGCUUAAGAGCAUCUUCGGAUGCAGAGGCGGCAGCCUUCGGUGGUGCGGUAGCGCAAACGUUCUCCACUAUGACACGCAAAACGCGUGCUCCGUUGAAUGGAGUCGAUCAUG [G46A C85U A89G C96A A106C U145C U146G] | ≤ -4.2
